# Laboratory results as given in PubChem BioAssay (Tox21).
# Where “and” joins values, the source holds several entries; their conditions need not be identical. Equal entries are not always repeated. Inconclusive means that the source gave no clear call. Such entries were picked first, then a sample of the others. For some of these results: A potency beside an inconclusive call is a rough fit, not a confirmed value. Calls of active or inactive are those of the source. Unless noted, calls come from the whole dose curve; as a rule, active = well fitted curve in the direction sought with a large enough effect in the repeat runs; inconclusive = weak or mixed curves; inactive = no such curve, though single readings can be large; an effect the other way counts as inactive or inconclusive.
# Assays:
# [1] = target: Peroxisome proliferator-activated receptor gamma (Homo sapiens) (UniProt P37231); experiment: qHTS assay to identify small molecule agonists of the peroxisome proliferator-activated receptor gamma (PPARg) signaling pathway (AID 743094; active = well fitted activation curve with a large enough effect in the signal ratio in the repeat runs, not every such curve was filed as active; inconclusive = weak or mixed curves, or effect the other way; inactive = no such curve, though single readings can be large or run the other way; the % refers to the signal ratio; note: potency is the fitted concentration of half-maximal effect; for activation: % is set by controls: 0 for no effect and ±100 for the full control effect); conditions: HEK293H PPARg-UAS-bla, beta-lactamase FRET ratio, 17 h
# Method in brief: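 Agonist activity was taken from a beta-lactamase reporter (FRET substrate, 1 h at room temperature) in HEK293H cells carrying a PPARg UAS-bla construct. Compounds in DMSO were incubated 17 h at 37C after a 5 h cell pre-incubation.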
# [2] = target: Peroxisome proliferator-activated receptor gamma (Homo sapiens) (UniProt P37231); experiment: qHTS assay to identify small molecule antagonists of the peroxisome proliferator-activated receptor gamma (PPARg) signaling pathway (AID 743191; calls by dose curve; note: potency is the fitted concentration of half-maximal effect; nearly all actives have a fitted effect of over 30% in size); conditions: HEK293H PPARg-UAS-bla, beta-lactamase ratio, antagonist, 17 h; ratio activity, negative = inhibition: at 62.6 µM (top of the series) unless noted
# Method in brief: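 GeneBLAzer PPARg UAS-bla HEK293H cells carrying a UAS-driven beta-lactamase reporter were plated at 3000 cells/well, preincubated 5 h at 37C, then given compound for 17 h at 37C; LiveBLAzer B/G FRET substrate was read after 1 h at room temperature.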
# [3] = qHTS assay to identify small molecule antagonists of the peroxisome proliferator-activated receptor gamma (PPARg) signaling pathway - cell viability counter screen (AID 743194); conditions: PPARg-bla HEK293H viability, CellTiter-Glo luminescence, 17 h, co-treated with 50 nM rosiglitazone; activity change, negative = cytotoxicity: at 62.6 µM (top of the series) unless noted; note: potency is the fitted concentration of half-maximal effect; nearly all actives have a fitted effect of over 55% in size
# Method in brief: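 PPARg-UAS-bla HEK293H cells were plated, rested 5 h at 37 C, then treated with compounds plus rosiglitazone (50 nM final) for 17 h at 37 C; viability was then read by CellTiter-Glo luminescence after 30 min at room temperature.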
# [4] = qHTS assay for small molecule agonists of the antioxidant response element (ARE) signaling pathway - cell viability counter screen (AID 743203; calls by dose curve; note: potency is the fitted concentration of half-maximal effect; nearly all actives have a fitted effect of over 55% in size); conditions: ARE-bla HepG2 viability, CellTiter-Glo luminescence, 16 h; viability change, negative = cytotoxic: at 73.3 µM (top of the series)
# Method in brief: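 Viability counter screen: CellTiter-Glo luminescence, read after 30 min at room temperature, in ARE-bla HepG2 wells. Compound exposure lasted 16 h at 37C/5% CO2, following a 5 h pre-incubation of the cells after plating.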
# [5] = qHTS assay to identify small molecule agonists of the peroxisome proliferator-activated receptor delta (PPARd) signaling pathway - cell viability counter screen (AID 743211); conditions: PPARd-bla HEK293H viability, CellTiter-Glo luminescence, 17 h; activity change, negative = cytotoxicity: at 62.6 µM (top of the series) unless noted; note: potency is the fitted concentration of half-maximal effect; nearly all actives have a fitted effect of over 55% in size
# Method in brief: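 Read-out: CellTiter-Glo luminescence, 30 min RT, measured in the same wells as the beta-lactamase reporter. Cells: GeneBLAzer PPAR delta UAS-bla HEK293H, 3000 cells/well, compound exposure 17 h at 37C.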
# [6] = qHTS assay to identify small molecule antagonists of the peroxisome proliferator-activated receptor delta (PPARd) signaling pathway - cell viability counter screen (AID 743213); conditions: PPARd-bla HEK293H viability, CellTiter-Glo luminescence, 17 h; viability change, negative = cytotoxic: at 62 µM (top of the series) unless noted; note: potency is the fitted concentration of half-maximal effect; nearly all actives have a fitted effect of over 50% in size
# Method in brief: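 Same-well viability: cells pre-incubated 5 h, dosed with compound plus 300 nM L165041, kept 17 h at 37 C, FRET substrate 2 h RT, then CellTiter-Glo 30 min RT and luminescence.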
# [7] = target: Peroxisome proliferator-activated receptor delta (Homo sapiens) (UniProt Q03181); experiment: qHTS assay to identify small molecule antagonists of the peroxisome proliferator-activated receptor delta (PPARd) signaling pathway (AID 743215; active = well fitted inhibition curve with a large enough effect in the signal ratio in the repeat runs, not every such curve was filed as active; inconclusive = weak or mixed curves, or effect the other way; inactive = no such curve, though single readings can be large or run the other way; the % refers to the signal ratio;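 note: cells stimulated with agonist L165041 at 300 nM final during compound exposure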; note: potency is the fitted concentration of half-maximal effect; for ratio activity, negative = inhibition: % is set by controls: 0 for no effect and ±100 for the full control effect); conditions: HEK293H PPARd-UAS-bla, beta-lactamase FRET ratio, antagonist, 17 h; ratio activity, negative = inhibition: at 62 µM (top of the series) unless noted
# Method in brief: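 Agonist L165041 (300 nM final) added with compound to PPARd-bla HEK293H UAS-bla reporter cells; 17 h incubation at 37 C. Read-out: LiveBLAzer FRET substrate, 2 h at room temperature, fluorescence intensity.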
# [8] = qHTS assay to identify small molecule agonists of the farnesoid-X-receptor (FXR) signaling pathway - cell viability counter screen (AID 743218); conditions: FXR-bla HEK293T viability, CellTiter-Glo luminescence, 16 h; viability change, negative = cytotoxic: at 62.6 µM (top of the series) unless noted; note: nearly all actives have a fitted effect of over 45% in size; note: potency is the fitted concentration of half-maximal effect; for viability change, negative = cytotoxic: % is set by controls: 0 for no effect and ±100 for the full control effect
# Method in brief: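 Viability counter screen in the same wells: CellTiter-Glo luminescence, 30 min room-temperature incubation, measured after the beta-lactamase read. Cells were GeneBLAzer FXR-UAS-bla HEK 293T, compound-treated 16 h at 37C.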
# [9] = target: Vitamin D3 receptor (Homo sapiens) (UniProt P11473); experiment: qHTS assay to identify small molecule antagonists of the vitamin D receptor (VDR) signaling pathway (AID 743223; active = well fitted inhibition curve with a large enough effect in the signal ratio in the repeat runs, not every such curve was filed as active; inconclusive = weak or mixed curves, or effect the other way; inactive = no such curve, though single readings can be large or run the other way; the % refers to the signal ratio; note: potency is the fitted concentration of half-maximal effect); conditions: VDR-UAS-bla HEK293T, beta-lactamase FRET ratio, 16 h; activity change, negative = inhibition: at 61 µM (top of the series) unless noted
# Method in brief: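 Beta-lactamase reporter read-out: FRET substrate fluorescence after 2 h at room temperature, following 16 h exposure of VDR-bla cells to test compound plus 3 nM (final) 1alpha,25-dihydroxyvitamin D3 agonist at 37C.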
# [10] = qHTS assay to identify small molecule agonists of the vitamin D receptor (VDR) signaling pathway - cell viability counter screen (AID 743224); conditions: VDR-bla HEK293T viability, CellTiter-Glo luminescence, 16 h; activity change, negative = cytotoxicity: at 62.6 µM (top of the series); note: potency is the fitted concentration of half-maximal effect; nearly all actives have a fitted effect of over 50% in size
# Method in brief: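 Counter screen run in the same wells as the VDR-bla reporter assay: CellTiter-Glo luminescence, 30 min at room temperature, after 16 h compound treatment at 37C of cells pre-plated for 4 h.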
# [11] = qHTS assay to identify small molecule that activate the aryl hydrocarbon receptor (AhR) signaling pathway - cell viability counter screen (AID 743086); note: nearly all actives have a fitted effect of over 45% in size; note: potency is the fitted concentration of half-maximal effect
# Method in brief: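 HepG2-AhR-luc (HG2L7.5c1) cells, 4000/well, were preincubated 5 h at 37C, exposed to compound in qHTS format for 24 hr at 37C, then given CellTiter-Fluor for 30 min; viability was read as fluorescence in the reporter wells.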
# [12] = qHTS assay for small molecule agonists of the antioxidant response element (ARE) signaling pathway (AID 743202; active = well fitted activation curve with a large enough effect in the signal ratio in the repeat runs, not every such curve was filed as active; inconclusive = weak or mixed curves, or effect the other way; inactive = no such curve, though single readings can be large or run the other way; the % refers to the signal ratio; note: % is set by controls: 0 for no effect and ±100 for the full control effect); conditions: HepG2 ARE-bla reporter, beta-lactamase FRET, 16 h; activation: at 73.3 µM (top of the series) unless noted
# Method in brief: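 Following a 16 h, 37 C exposure of reporter HepG2 cells (ARE-driven beta-lactamase, 2,000 cells/well) to compounds, FRET substrate was applied for 2 h at room temperature and fluorescence intensity recorded.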
# [13] = target: Bile acid receptor (Homo sapiens) (UniProt Q96RI1); experiment: qHTS assay to identify small molecule agonists of the farnesoid-X-receptor (FXR) signaling pathway (AID 743220; active = well fitted activation curve with a large enough effect in the signal ratio in the repeat runs, not every such curve was filed as active; inconclusive = weak or mixed curves, or effect the other way; the % refers to the signal ratio; note: potency is the fitted concentration of half-maximal effect); conditions: HEK293T FXR-UAS-bla, beta-lactamase FRET ratio, 16 h; activation: at 62.6 µM (top of the series) unless noted
# Method in brief: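 FXR-UAS-bla HEK 293T cells carrying a UAS-driven beta-lactamase reporter were plated for 5 h at 37C/5% CO2, then exposed to DMSO-dissolved Tox21 10K compounds for 16 h at 37C. A LiveBLAzer B/G FRET substrate was loaded for 2 h at room temperature before fluorescence reading.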
# [14] = activation: at 57 µM (top of the series) unless noted
# Tags give direction and shape of the fitted curve or compound fluorescence and quenching.
# Sequence of UniProt P37231 (P37231 whole entry, looked up): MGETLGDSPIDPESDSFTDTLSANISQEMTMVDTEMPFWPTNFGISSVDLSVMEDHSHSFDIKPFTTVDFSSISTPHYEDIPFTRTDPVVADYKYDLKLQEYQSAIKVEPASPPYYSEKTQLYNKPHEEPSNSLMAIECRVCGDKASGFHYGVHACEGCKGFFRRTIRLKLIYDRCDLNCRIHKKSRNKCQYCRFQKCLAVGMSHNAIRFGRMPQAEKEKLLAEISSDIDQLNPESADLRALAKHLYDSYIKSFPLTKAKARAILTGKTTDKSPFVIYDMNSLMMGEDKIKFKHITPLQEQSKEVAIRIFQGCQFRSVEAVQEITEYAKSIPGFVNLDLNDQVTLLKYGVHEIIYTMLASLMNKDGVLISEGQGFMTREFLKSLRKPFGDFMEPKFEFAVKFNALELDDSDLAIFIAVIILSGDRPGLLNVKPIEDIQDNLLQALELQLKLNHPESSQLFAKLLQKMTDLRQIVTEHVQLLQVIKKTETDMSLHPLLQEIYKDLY
# Sequence of UniProt P11473 (P11473 whole entry, looked up): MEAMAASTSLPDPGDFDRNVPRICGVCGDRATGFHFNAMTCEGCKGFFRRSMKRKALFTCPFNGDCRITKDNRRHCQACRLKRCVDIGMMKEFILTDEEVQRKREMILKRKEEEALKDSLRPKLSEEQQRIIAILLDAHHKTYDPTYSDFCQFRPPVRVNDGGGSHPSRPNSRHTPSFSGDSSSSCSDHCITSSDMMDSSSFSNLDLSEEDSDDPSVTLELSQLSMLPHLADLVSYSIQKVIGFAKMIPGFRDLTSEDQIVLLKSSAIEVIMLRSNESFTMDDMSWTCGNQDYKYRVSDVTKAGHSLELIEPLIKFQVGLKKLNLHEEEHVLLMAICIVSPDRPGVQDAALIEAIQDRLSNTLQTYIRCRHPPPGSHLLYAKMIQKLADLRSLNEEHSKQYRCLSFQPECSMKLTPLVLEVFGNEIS
# Sequence of UniProt Q96RI1 (Q96RI1 whole entry, looked up): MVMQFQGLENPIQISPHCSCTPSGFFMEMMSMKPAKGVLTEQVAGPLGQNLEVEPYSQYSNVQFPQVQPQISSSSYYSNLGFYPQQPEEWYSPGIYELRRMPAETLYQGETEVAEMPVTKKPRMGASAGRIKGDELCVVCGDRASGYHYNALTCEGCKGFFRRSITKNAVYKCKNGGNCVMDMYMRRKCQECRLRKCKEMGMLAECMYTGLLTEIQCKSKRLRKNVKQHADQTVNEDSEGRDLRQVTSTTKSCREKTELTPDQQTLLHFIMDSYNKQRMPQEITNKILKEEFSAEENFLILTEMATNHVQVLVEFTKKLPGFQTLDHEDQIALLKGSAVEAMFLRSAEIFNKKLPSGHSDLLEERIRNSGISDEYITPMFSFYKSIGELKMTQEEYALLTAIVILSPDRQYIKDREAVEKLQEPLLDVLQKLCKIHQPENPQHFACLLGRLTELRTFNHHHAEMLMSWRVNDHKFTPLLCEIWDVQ
# Sequence of UniProt Q03181 (Q03181 whole entry, looked up): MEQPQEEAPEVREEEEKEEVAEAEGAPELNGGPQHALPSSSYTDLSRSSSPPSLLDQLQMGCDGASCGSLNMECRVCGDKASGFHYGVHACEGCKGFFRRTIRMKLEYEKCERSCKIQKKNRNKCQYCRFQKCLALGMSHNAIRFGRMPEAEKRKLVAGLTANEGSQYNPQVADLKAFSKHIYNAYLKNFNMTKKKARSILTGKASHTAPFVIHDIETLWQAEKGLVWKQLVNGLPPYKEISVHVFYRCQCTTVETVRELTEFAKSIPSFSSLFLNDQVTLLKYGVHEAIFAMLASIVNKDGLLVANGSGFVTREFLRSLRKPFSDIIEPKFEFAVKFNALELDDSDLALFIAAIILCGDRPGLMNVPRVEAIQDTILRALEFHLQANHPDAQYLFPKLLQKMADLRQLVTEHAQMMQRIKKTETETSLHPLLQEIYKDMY
smiles,measurement,setting,value
CC(=O)[C@H]1CC[C@H]2[C@@H]3CCC4=CC(=O)CC[C@]4(C)[C@H]3CC[C@]12C,Potency,[1]; [14],"inconclusive: 1.94 µM [fluorescent, full curve]"
same,activation,[1]; [14],inconclusive: -13.9%
same,activation,[1]; at 57 µM (top of the series),inactive: -10.2%
same,Potency,[2],inconclusive: 54.6 µM [fluorescent] and inconclusive: 54.9 µM
same,Potency,[3],"inconclusive: 43.4 µM [cytotoxic] and inconclusive: 54.9 µM [cytotoxic, single point]"
same,Potency,[4],"inconclusive: 68.2 µM [cytotoxic, partial curve, poor fit]"
same,Potency,[5],"inconclusive: 43.6 µM [cytotoxic, partial curve]"
same,Potency,[6],"inconclusive: 13.7 µM [cytotoxic, full curve, poor fit] and inconclusive: 61.6 µM [cytotoxic, single point]"
same,Potency,[7],"inconclusive: 34.5 µM [fluorescent, partial curve, poor fit]"
same,Potency,[8],inconclusive: 48.7 µM [cytotoxic]
same,Potency,[9],"inconclusive: 21.7 µM [activator, single point] and inconclusive: 6.16 µM [fluorescent, partial curve, poor fit]"
same,Potency,[10],"inconclusive: 24.4 µM [cytotoxic, partial curve] and inconclusive: 43.6 µM [cytotoxic, partial curve, poor fit]"
O=[N+]([O-])c1ccc(Nc2ccc(Nc3ccccc3)c(S(=O)(=O)O)c2)c([N+](=O)[O-])c1,Potency,[11],"inconclusive: 54.5 µM [falling, partial curve]"
same,activation,[12],inconclusive: 3.95%
same,Potency,[6],"inconclusive: 13.8 µM [cytotoxic, partial curve, poor fit]"
same,"ratio activity, negative = inhibition",[7],inconclusive: -22.1%
same,Potency,[8],inactive
same,"activity change, negative = inhibition",[9],inconclusive: 29.2%
Cc1c(N)cccc1N,Potency,[11],inactive
same,activation,[12],inconclusive: -0.41% [at 94.8 µM]
CC#C[C@]1(O)CC[C@H]2[C@@H]3CCC4=CC(=O)CCC4=C3[C@@H](c3ccc(N(C)C)cc3)C[C@@]21C,Potency,[11],"inconclusive: 9.44 µM [falling, full curve]"
same,Potency,[3],"inconclusive: 27.5 µM [cytotoxic, partial curve, poor fit] and inconclusive: 33.5 µM [cytotoxic, single point]"
same,Potency,[4],"inconclusive: 4.33 µM [cytotoxic, full curve, poor fit]"
same,Potency,[5],"inconclusive: 34.7 µM [cytotoxic, partial curve] and inconclusive: 33.5 µM [cytotoxic]"
same,Potency,[6],"inconclusive: 17.4 µM [cytotoxic, full curve]"
same,Potency,[8],"inconclusive: 61.6 µM [cytotoxic, single point] and inconclusive: 29.8 µM [cytotoxic, partial curve]"
same,Potency,[13],"inconclusive: 26.6 µM [fluorescent, single point]"
same,activation,[13],inconclusive: 1.95% [fluorescent]
